# The other results are listed elsewhere or left out.
# System: HSkMC (human skeletal muscle cells)
# Assay: cytotoxicity call (relative viability < 0.9)
# Details: 10 µM
row,Compound,cytotoxicity call
1,NC1CCN(C(=O)c2c[nH]c3ccccc23)CC1,inactive
2,Cc1cccc(Nc2ccccc2C(=O)O)c1C,inactive
3,COc1ccccc1-c1ccc2c(c1)O[C@H](CN(C)CC1CCOCC1)[C@@H](C)CN([C@@H](C)CO)S2(=O)=O,inactive
4,C[C@H](CO)N1C[C@H](C)[C@@H](CN(C)S(C)(=O)=O)Oc2ccc(NS(C)(=O)=O)cc2C1=O,inactive
5,C[C@@H]1CN([C@@H](C)CO)S(=O)(=O)c2ccc(C#CC3CCCC3)cc2O[C@H]1CN(C)C(=O)Cc1ccncc1,inactive
6,Cn1cnc(CCNC(=O)C[C@@H]2CC[C@@H]3[C@H](COC[C@H](O)CN3C(=O)C3CC3)O2)c1,inactive
7,CC(C)NC(=O)Nc1ccc2c(c1)CC(=O)N([C@H](C)CO)C[C@H](C)[C@@H](CN(C)S(=O)(=O)c1ccc(F)cc1)O2,inactive
8,COc1ccccc1C(=O)Nc1ccc2c(c1)C(=O)N(C)[C@H]1CC[C@@H](CC(=O)NCCc3ccncc3)O[C@@H]1CO2,inactive
9,NCCCCC(=O)O,inactive
10,O=C1/C(=C/C=C/c2ccco2)CCC/C1=C\C=C\c1ccco1,inactive
11,Cc1noc(C)c1S(=O)(=O)Nc1ccc2c(c1)C(=O)N([C@@H](C)CO)C[C@H](C)[C@H](CN(C)C(=O)Nc1ccccc1)O2,inactive
12,O=C(C[C@H]1C[C@@H]2c3cc(NS(=O)(=O)c4ccc(F)cc4)ccc3O[C@@H]2[C@@H](CO)O1)NC1CCCCC1,inactive
13,C[C@H](CO)N1C[C@H](C)[C@@H](CN(C)C(=O)CCC(F)(F)F)OCCCC[C@H](C)Oc2ccc(NC(=O)Cc3ccccc3)cc2C1=O,inactive
14,CNC[C@H]1OCCCC[C@H](C)Oc2ccc(NS(=O)(=O)c3c(C)noc3C)cc2C(=O)N([C@H](C)CO)C[C@H]1C,inactive
15,C[C@H](CO)N1C[C@H](C)[C@H](CN(C)Cc2ccc(Oc3ccccc3)cc2)Oc2c(NS(=O)(=O)c3ccc(Cl)cc3)cccc2C1=O,inactive
16,Cc1noc(C)c1NC(=O)Nc1ccc2c(c1)C(=O)N([C@@H](C)CO)C[C@@H](C)[C@H](CN(C)C(=O)Nc1cccc3ccccc13)OCCCC[C@@H](C)O2,active
17,O=C(Nc1ccc2c(c1)[C@H]1C[C@@H](CC(=O)N3CCc4ccccc4C3)O[C@@H](CO)[C@H]1O2)C1CCOCC1,inactive
18,N#CCC(=O)NN,inactive
19,[O-][NH2+]N1CCCCCCC1,inactive
20,Cc1ccc(S(=O)(=O)N(C)C[C@@H]2Oc3ccc(NS(C)(=O)=O)cc3C(=O)N([C@H](C)CO)C[C@H]2C)cc1,inactive

row,Compound,cytotoxicity call
1,COc1ccc(NC(=O)N(C)C[C@H]2OCc3ccccc3-c3c(n(C)c4ccccc34)C(=O)N([C@@H](C)CO)C[C@H]2C)c(OC)c1,inactive
2,COc1ccc(S(=O)(=O)N[C@@H](CNc2nc(C)nc(N3CCC(c4ccc5c(n4)NCCC5)CC3)c2C)C(=O)O)cc1,inactive
3,C[C@H](CO)N1C[C@H](C)[C@@H](CN(C)S(=O)(=O)c2ccc(F)cc2)OCCCC[C@H](C)Oc2ccc(NC(=O)Nc3ccc(C(F)(F)F)cc3)cc2C1=O,inactive
4,C[C@H]1CCCCO[C@@H](CN(C)Cc2ccc3c(c2)OCO3)[C@@H](C)CN([C@@H](C)CO)C(=O)c2cc(NC(=O)c3ccccc3)ccc2O1,inactive
5,CO[C@@H]1CN(C)C(=O)c2cc(NC(=O)CC(F)(F)F)ccc2OC[C@H](C)N(C(=O)C2CCOCC2)C[C@@H]1C,inactive
6,C[C@@H]1CN([C@H](C)CO)C(=O)c2cc(NC(=O)Nc3ccc(F)cc3)ccc2O[C@@H](C)CCCCO[C@@H]1CN(C)C(=O)C1CCCCC1,inactive
7,C[C@@H]1CN([C@@H](C)CO)C(=O)Cc2cc(NS(=O)(=O)c3cn(C)cn3)ccc2O[C@@H]1CN(C)S(=O)(=O)c1ccc(F)cc1,inactive
8,C[C@@H]1CN([C@@H](C)CO)C(=O)Cc2cc(NC(=O)CCC(F)(F)F)ccc2O[C@@H]1CN(C)Cc1ccc(C(=O)Nc2ccccc2N)cc1,inactive
9,C[C@@H]1CN([C@H](C)CO)C(=O)c2cc(NC(=O)CCC(F)(F)F)ccc2O[C@@H](C)CCCCO[C@H]1CN(C)C(=O)Cc1ccccc1,inactive
10,COCC#Cc1ccc2c(c1)O[C@H](CN(C)Cc1ccc3c(c1)OCO3)[C@H](C)CN([C@H](C)CO)S2(=O)=O,inactive
11,CSc1n[nH]c(=O)c2cc(C)nn12,inactive
12,C[C@@H]1CCCCO[C@H](CN(C)CC2CCCCC2)[C@H](C)CN([C@H](C)CO)C(=O)c2cc(NS(=O)(=O)c3ccccc3)ccc2O1,inactive
13,COc1ccc(S(=O)(=O)N(C)C[C@H]2OCCCC[C@@H](C)Oc3ccc(NC(=O)NC4CCCCC4)cc3C(=O)N([C@@H](C)CO)C[C@H]2C)cc1,inactive
14,CC(=O)O[C@H]1C[C@@H](OC(C)=O)C(C)(C)[C@@H]2CC(=O)[C@]3(C)[C@H](CC[C@@]4(C)[C@H](C(=O)O)OC(=O)[C@H]5O[C@]543)[C@@]12C,inactive
15,C[C@@H]1CN([C@H](C)CO)C(=O)c2cccc(NC(=O)c3cnccn3)c2O[C@@H]1CN(C)Cc1ccncc1,inactive
16,C[C@@H]1CN([C@H](C)CO)C(=O)c2cc(NS(=O)(=O)c3ccc(F)cc3)ccc2O[C@@H](C)CCCCO[C@@H]1CN(C)C(=O)Cc1ccccc1,inactive
17,c1ccc(CCNc2ccnc3cc4ccccc4cc23)cc1,active
18,NC(=O)NCC#Cc1ccc2c(c1)[C@]1(C(=O)N2)[C@H](C(=O)N2CCN(c3ncccn3)CC2)[C@H]2C(=O)O[C@H](c3ccccc3)[C@H](c3ccccc3)N2[C@@H]1c1ccc(OCCO)cc1,inactive
19,Cc1ccc(S(=O)(=O)Nc2ccc3c(c2)C(=O)N([C@H](C)CO)C[C@@H](C)[C@@H](CN(C)CC2CCCCC2)OCCCC[C@@H](C)O3)cc1,inactive
20,COc1cccc(-c2ccc3c(c2)O[C@H](CN(C)C(=O)C2CCOCC2)[C@H](C)CN([C@@H](C)CO)S3(=O)=O)c1,inactive

# — the antibiotic and cytotoxicity screens of Wong et al. (2023)
